The values that follow come from the RNAGym collection of RNA variant scans (doi:10.1093/nar/gkz1192).

The labels stand for the following.
B1: CPEB3 Ribozyme (parent)
chain: UAACAGGGGGCCACAGCAGAAGCGUUCACGUCGCAGCCCCUGUCAGAUUCUGGUGAAUCUGCGAAUUCUGCUGUAUAUCUC

Read counts are not given, so values of variants with three or more changes are uncertain.

In this data set the parent is B1. The data set can be described thus: self-cleavage, relative activity (ratio to wild type); higher = more cleavage; in vitro, sequencing. Summed up: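 After error-prone PCR and barcoding, CPEB3 ribozyme mutant libraries were transcribed with T7 RNA polymerase at 37°C for 5 hours, then given 15 min with DNase I before an EDTA stop, and they cleaved during both steps. Reverse transcription with template switching preceded Illumina sequencing. Relative activity divides a variant's cleaved/total read fraction by the unmutated ribozyme's. At least 5 reads were required per variant, and three batches were averaged.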
On to UAACAGGGGGCCACAGGAGAAGCGUUCACGUCGGAGCCCCUGUCAGACUCUGGUGAGUCUGCGAAUUCUGCUGUAUAUCUC, for which the self-cleavage worked out at 0.24. In the case of UAACAGGGGGCCACAGUAGAAGCGCUCACGUCGCAGCCCCUGACAGAUUCUGGUGAAUCUGCGAACUCUGCCGUAUAUCUC, the self-cleavage stood at 0.4. As for UAACAGGGGGCCACAUCAGAAGCGUUCACGCCGCAGCCCCUGUCAGAUUCUGGUGAAUCUGCGAAUUCUGCUGCAUAUCCC, the self-cleavage was 0.49.

As for UAACAGGGGGCCACAGUGGAAGCGUUCACGUCGCAGCCCCUGUCGGAUCCUGGUGAAUCUGCGAAUUCUGCUGUAUAUCCC, the self-cleavage came out at 0.4. Consider UAACAGGGGGCCACAGAGGAAGCGUUCACGUCGCAGCCCCUGUCUGAUUCUGGGGAAUCUGCGUAUUCUGCUGUAUAUCUC, for which the self-cleavage was 0.08.

For UAACAGGGGGCCACAGGAGAAGCGUCCACGUCGCAGCCCCUGUCAGGUUCUGGUGAAUCUGCGAAUUCUGCUGUAUAUCUC, the self-cleavage worked out at 0.34. For UAACAGGGGGCCACAGUAGAAGCGUUCACGGCGCAGCCCCCGUCAGAUUCUGGGGAAUCCGCGUAUUCUGCUGUAUAUCUC the value was 0.09; for UAACAGGGGGCCACAGAAGAAGCGUUCACGUCGCAGCCCCCGUCAGAUUCUGGUGGAUCUGCGAAUUCUGCUGUAUAUCUC, 0.26; for UAACAGGGGGCCACAGUAGAAGCGUUCAUGUCGCAGCCCCUGUCAGAUUCUAGCGAAUCUGCGAAUUCUGCUGUAUAUCUC, 0.28.

On to UAACAGGGGGCCACAGUAGAAGCGUUCACGCCGCAGCCCCAGUCAGAUUCUGGUGAAUCUGCGAAUUCAGCUGUAUACCUC, for which the self-cleavage turned out to be 0.21. As to UAACAGGGGGCCACAGUUGGAGCGUACACGUCGCAGCCCCUGUCAGACUCUGGUGAAUCUGCGAAUUCUGCUGUAUAUCUC, the self-cleavage stood at 0.06. In the case of UAACAGGGGGCCACAGUAGAAGCGUUCACGCCGCUGCCCCUGUCAGAUUCUGGUGAAUCUGCGAAUUCUGCUGUAUAUCUC, the self-cleavage was found to be 0.19. For the variant UAACAGGGGGCCACAGUAGAAGUGUUCACGACGCAGCCCCUGUCAGAUUCUGGUGAAUCUGCGAAUUCUGCUGUAUAUCUC, the self-cleavage was found to be 0.16. Consider UAACAGGGGGCCACAGUAGAAGCGUUCGCGUCGCAGCCCCUGUCAGGUUCUGGUGAAUCUGCGAAUUCUGCUGUAUAUCUC, for which the self-cleavage stood at 0.28. Consider UAACAGGGGGCCACAGGUGAAGCAUUAACGUCGCGGCCCCUGUCAGUUUCUGGCGAAUCUGCGAAUUCUGCUGUAUAUCUC, for which the self-cleavage amounted to 0.06. For UAACAGGGGGCCACAGUAGAAGCGUUCACGUCGCGGCCCCUGUCAGAUUCUGGUGAAUCUGCGAAUUCUGCUGUAUAUCAC the value was 0.81; for UAACAGGGGGCCACAGUAGAAGCGCUCACGUCGCAGACCCGGUCAGAUUCUGGUGAAUAUGCGAAUUCUGCUGUAUACCUC, 0.15; for UAACAGGGGGCCACAGAAGAAGCGUUCACGACGCAGCCCCAGUCAGAUUCUGGUGAAUCUGCGAAUUCUGCUGUAUAUCCC, 0.08. With UAACAGGGGGCCACAGGAGAGGCGUUCACGUCGCAGCCCCUGUCAGAUUCUGGUGAAUCUGCGAAUACAGCUGUAUAUCUC, the self-cleavage amounted to 0.15. For UAACAGGGGGCCACAGUAGAAUCGUUCACGUCGCAGCCCCAGUCAGAUUCGGGUGAACCUGCGAAUUCUGCUGUAUAUCUC the value was 0.26. To UAACAGGGGGCCACAGUUGAAGCGUCCACGUCGCAGCCCCUGUCAGAUUUUGGCGAAUCUGCGAAUUCUGCUGUAUAUCUC belongs 0.06; to UAACAGGGGGCCACAUCAGAAGCGUUCACGUCGCAGCCCCUGCCAGAUUCUGGUGAAUCUGCGAGUUCUGCUGUAUAUCUC, 0.05. UAACAGGGGGCCACAUCAGAAGCGUACACGUCGCAGCCCCCGUCAGAUUCUAGUGAAUCUGCGAAUUCGGCUGUAUAUCUC: the self-cleavage was found to be 0.17. On to UAACAGGGGGCCACAGAAGAAGCGUUCACGUCGCGGCCCCUGUCAGAUUCUGGUGAAUCUGCGAAUUCUGCUGUAUAACUC, for which the self-cleavage was determined as 0.63. In the case of UAACAGGGGGCCACAGGAGAAGCGUUCACGUCGCAGCCCUUGUCAGAUUCUGGUGAAUCUGCGAAUUCUGCUGUAUUUCUC, the self-cleavage amounted to 0.1.

In the case of UAACAGGGGGCCACAGUAGAAGCGUUCUCGUCGCAGCCCCUGUCAGAUUCUGGUGAAUCUGCGAGUACUGCUGUAUAUCUC, the self-cleavage was 0.06. With UAACAGGGGGCCACAGGUGAAGCGUUCACGUCGCAGCCCCUGUCAGAUUCUGGUGGAUCUGCGAAUCCUGCUGUAUAUCUC, the self-cleavage was 0.18.

For UAACAGGGGGCCACAGGAGAAGCGCUCACGUCGCAGCCCCUGUCAGAUUCUGGUGAAUCAGCGAAUUCCGCUGUGCAUCUC, the self-cleavage was 0.09. For UAACAGGGGGCCACAGGGGAAGCGUUCACGUCGCAGCCCCUGUCAGAUUCUGGUGAAUCUGCGAAUACUGCCGUAUAUCUC the value was 0.05; for UAACAGGGGGCCACAGGAGAAGCGUUCACGUCGCAGCCCCUGUCAGAUUCCGGUGAAUCCGCGAAUUCUGCUGUAAAACUC, 0.07; for UAACAGGGGGCCACAGUAGAAGCGUACACGUCGCAGCCCCUGUCAGAUUCUGGUGAAUCUACGAAUUCUGCUGUAUAUCUC, 0.45. To UAACAGGGGGCCACAGUAGAAGCGUUCACGUCGCAGCCCCUGUCAGAUUCAGGUGAGUCUGCGAAAUCUGCUGUAUAUCUC belongs 0.11; to UAACAGGGGGCCACAGUAGAAGCGUUCACGUCACUGCCCCUGUCAGAUUCUGGUGAAUAGGCGAAUUCUGCUGUAUAUCCC, 0.05; to UAACAGGGGGCCACAGUAGAAGCGUACACGUAGCAGCCCCUGUCAGAUUCUGGUGAAUCUGCGAAUUCUGCUGUAUAUCUC, 0.13.
